# Test results taken from article PMC12136788.
# Some of the results follow.
# T1: UNK ZnF1-3 (human, UniProt Q9C0B0 31-174)
# T1 sequence: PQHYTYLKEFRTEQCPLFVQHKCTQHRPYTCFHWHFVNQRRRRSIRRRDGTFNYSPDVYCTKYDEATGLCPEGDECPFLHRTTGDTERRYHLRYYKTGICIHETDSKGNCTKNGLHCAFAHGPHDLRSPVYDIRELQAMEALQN
# B1: 18845624_18845744_8819_CDS_ENSG00000157106_ENST00000446231|human|control|control (ssRNA)
# RNA: GGGAGUUCUACAGUCCGACGAUCCAGUAACUGAACCAAGCAGGUGACGUUUCCGCUCAUACUGCAGAGUUCCUCCAAGAACCAGGCUCCAUCCCGAGAAGUCAGAUCAACCAGCUGUUCUCCAGCACUUGACGCUGCACCUUCCAACAGAGGAUUGAGCAUCA
# B2: chr18:34933064:34933065:+_ENSMUSG00000034300_ENSMUST00000097622|mus_hu|FALSE|FALSE (ssRNA)
# RNA: GGGAGUUCUACAGUCCGACGAUCUGGCCAACCACACUACACACACAGCACAGAUGCAGACAUUGACCCAGUGUCAGCCACAUGCCCUGGAGGUGUGCUCCACUCUGGGUAAGCCCAAUAUGUGAAAAUUCAAAUAGUCAAAACCAACAGAGGAUUGAGCAUCA
# B3: chr11:68582865:68582866:-_ENSG00000110090_ENST00000265641|hu_mus|FALSE|FALSE (ssRNA)
# RNA: GGGAGUUCUACAGUCCGACGAUCCUUGAAUCGGAUGAACUUCUUCUUCCAGGAGUGCAGCCCUGACAGGCAGAUCUGUUUGAGGGCUUCAUGGCUCAGGCGGAGAUCGAUGCCAUCAGGGGUGACUGUGAACUGGAAGGCCACCAACAGAGGAUUGAGCAUCA
# B4: 57990141_58003822_369_CDS_ENSG00000108443_ENST00000225577|human|control|control (ssRNA)
# RNA: GGGAGUUCUACAGUCCGACGAUCAUCUUUAGCAUUUCUUACUAUCAUUGCCUUUUUAAGCACCUUCAUGGCAAAUAUUUUCCCAGUAUUUGCUCCUGUUACUUUUCGUACUUGAAAAACCUUUCCAUAGCCCCCUUUACCAAGCAACAGAGGAUUGAGCAUCA
# B5: chr1:114133195:114133196:+_ENSG00000081026_ENST00000369615|hu_mus|motif|central (ssRNA)
# RNA: GGGAGUUCUACAGUCCGACGAUCCAUUUCCCAGUUUUUGGGCAGCGGUUCCAGAUUCUCAUCUCUCAUCAUAUAAUUUCGGAAGUCCAUGGAGCUAUUUGUUUGGUUAUAACUUGGAACAGUCUUCAUCCAGCAGUCAGAUGUCAACAGAGGAUUGAGCAUCA
# B6: chr4:47484081:47484082:-_ENSMUSG00000039740_ENSMUST00000044148|mus_hu|FALSE|FALSE (ssRNA)
# RNA: GGGAGUUCUACAGUCCGACGAUCCAUUAUACUAUGAAGCCAAAUUAAUCAACUUUGAUAAUGAUACACACUUAAACUAUGAAAACCAAUUAAGGCACAGUAUCAUUCAAAAUUUAUAGACAGAAGAGCAAUAAUCCCGAGAAACAACAGAGGAUUGAGCAUCA
# B7: chr15:83907240:83907241:-_ENSMUSG00000018865_ENSMUST00000082365|mus_hu|FALSE|FALSE (ssRNA)
# RNA: GGGAGUUCUACAGUCCGACGAUCGUGGAAUUCAGCUCAAAUUCCGAGCGCAACUCGGUCCUUUGGUGGCCGACUCUCCACCCACUGCAUGCAAAUGCUCCUGACUGCAUUAGACUCCCACCUGCCAGCCUCACCAGGCAGACUCAACAGAGGAUUGAGCAUCA
# B8: chr7:148783431:148783432:+_ENSMUSG00000002957_ENSMUST00000003038|mus_mus|FALSE|FALSE (ssRNA)
# RNA: GGGAGUUCUACAGUCCGACGAUCGCUCAGAAGAUUCACAGCUUCCAUGUGUCCAAAGUCAAUGUCAUGACCAAGGAGAAAGAUGAAGAGCAAUUUGCAGACAUACUUCUUUUUACUGUAGCCAUCAAGAGCCUUGUCACCUUUCAACAGAGGAUUGAGCAUCA
# B9: 130405211_130409398_3816_CDS_ENSG00000196455_ENST00000356763|human|control|control (ssRNA)
# RNA: GGGAGUUCUACAGUCCGACGAUCAGAGUUGAAGUGAUGCAUAUCCACAACACAACCGUCCUCCUUCUGAUCUAGAAUUCUGCUUUGUAGAGGAUGGAUUUUAGGAGACUUGGGCAGCUUAGAAGCCUCAAUUCCAAGAAGCUGCAACAGAGGAUUGAGCAUCA
# B10: chr9:96305504:96305505:+_ENSG00000048828_ENST00000277165|hu_mus|FALSE|FALSE (ssRNA)
# RNA: GGGAGUUCUACAGUCCGACGAUCAGCUGCCCACUCCUUAAUGAUCAGUGGCGAGAAUUCUGGUGGAAGUCUGUUCUUUCUAAAAGCAAGUCUCUCAGUUUUCUUUCUGCUUUCUGCCAAACUAAACAGGACUCCGUAAACAUACAACAGAGGAUUGAGCAUCA
# B11: chr2:84460416:84460417:-_ENSMUSG00000034101_ENSMUST00000111697|mus_hu|FALSE|FALSE (ssRNA)
# RNA: GGGAGUUCUACAGUCCGACGAUCGCCACCUGGAUAACCAUCUUCAUAGUGGCGACUAUAACCAUCAGGAGGGUAGUGGAAGUUCCUAGGAAGGGUAGCAGUGCCAGCUUGCCCCACAUAGGGACCAGGUCCCCCAUUGCCAUUCAACAGAGGAUUGAGCAUCA
# B12: chr1:80268134:80268135:-_ENSMUSG00000004364_ENSMUST00000163119|mus_mus|motif|central (ssRNA)
# RNA: GGGAGUUCUACAGUCCGACGAUCGACUCUGUGUAGUUUAGAUGUGAAUUGAUCAUUAACUGUAAAUAUGUGGCCACUUUCGGUCUCCUUGGACUUGGGUUCUUUUGUGAGGACCCGCUGUGUUGGUUUACCACAGGCGAGGGACAACAGAGGAUUGAGCAUCA
# B13: chr7:56126341:56126342:+_ENSG00000146731_ENST00000540286|hu_mus|hu_hu_hu_mus_True|1_38 (ssRNA)
# RNA: GGGAGUUCUACAGUCCGACGAUCCAUGUUUCUCCUCUUGGCUCUGCGCAGAGCUACGAUCCCUUCUUUCGCAAGGGCAUCUAAGGAAAAGGGGUCAAUUCCCUUUUGAUUAAUAACGACAAAUCCUUUAUCUGAGUCGCCACACAACAGAGGAUUGAGCAUCA
# B14: chr14:96998876:96998877:+_ENSG00000090060_ENST00000216277|hu_mus|motif|central (ssRNA)
# RNA: GGGAGUUCUACAGUCCGACGAUCGAUAAAGCUGGCAAGUUCUUGCUACUAGCAUAGCCCAGGAAACACCACCGAGGAAACCGGAUAUAUUGGAAUAGAUGUUGUGCCGUUUGGCCCACAGUUUGAUGGCUCUCAGAGUUAACCCAACAGAGGAUUGAGCAUCA
# B15: chr11:29999966:29999967:-_ENSMUSG00000020315_ENSMUST00000011877|mus_mus|FALSE|FALSE (ssRNA)
# RNA: GGGAGUUCUACAGUCCGACGAUCACAUGUUGUGUGUUAGUAAGUGAUGCCGGAUACAAAUGGUUUGGCCUGUAGGUUUACAUGGAGCUGCACUGUGGCUGCAGCAAGAGAUCAGAAUACAUGAUCUGUUUAAUAAAGGCUACACAACAGAGGAUUGAGCAUCA
# B16: chr7:118215947:118215948:-_ENSMUSG00000005610_ENSMUST00000162415|mus_mus|FALSE|FALSE (ssRNA)
# RNA: GGGAGUUCUACAGUCCGACGAUCGGUCCUUGCAAUAGACUGCCUCUGCUUGAGAACUUAGGAUGUAAUUAUUGCAUGCUGCUAAUAUUCUAUCUAAACAUUAAGGAUACUCCUAAAGUAUUUGAUGGUAGACUAUGAUUAAGACAACAGAGGAUUGAGCAUCA
# B17: chr6:17615347:17615348:+_ENSMUSG00000015733_ENSMUST00000015877|mus_mus|FALSE|FALSE (ssRNA)
# RNA: GGGAGUUCUACAGUCCGACGAUCAUCUGCUCAUGCAAUUUUCAUUUAUGCAUUCUGCAUCUCUUUGCCAAUCUUGUAGCUAAGGAUCUUGUUCCAGUCGAUCUUAGUACGUGUCACUGGCAACUGUCGACGUAAGGCUUUGAACAACAGAGGAUUGAGCAUCA
# B18: chr13:108516651:108516652:-_ENSMUSG00000032846_ENSMUST00000105097|mus_mus|motif|central (ssRNA)
# RNA: GGGAGUUCUACAGUCCGACGAUCAUCGUGUGCCAUUAGGAAGGUCUCUCGGGCCUUGCUGAGGAACUCGAUAAACUCGCGGUAGUGCCGAGGACUGAUGUGUGUGAGGCGUGAGUGCGUUGUGUUGAUAUAGGCCCCGAUCGUCAACAGAGGAUUGAGCAUCA
# B19: chr7:7679991:7679992:-_ENSG00000106399_ENST00000396682|hu_hu|hu_hu_hu_mus_False|88_98 (ssRNA)
# RNA: GGGAGUUCUACAGUCCGACGAUCUGGGAUGAAUCUUUUCCAGCCUCCCUACGAAGCACACGGGCCGGUCGAUAUACUGUGGUAACAUGCUGGCGUUGACGCGCGCUUUGGGGAGCUGCAUUAUGUCCUCCAUGAUUCUGCCGCCAACAGAGGAUUGAGCAUCA
# B20: chr4:38702237:38702238:+_ENSG00000109787_ENST00000261438|hu_hu|motif|central (ssRNA)
# RNA: GGGAGUUCUACAGUCCGACGAUCUAAGCAGAAAGAUUAUUUUGACCCUCUAACACUAAGUACAUAACAGAAAAAAAAGUGCGGGUAUUUGUAAAACAAUAUUGUUGUAGCCCUCGUUUAAUGCAUGUAAAGAUGGCUUUGUAACAACAGAGGAUUGAGCAUCA
# B21: 21613190_21613310_60_5pUTR_ENSMUSG00000021820_ENSMUST00000100837|mouse|control|control (ssRNA)
# RNA: GGGAGUUCUACAGUCCGACGAUCGGCGGGCGGACGCGGCGGUGCAGCCCGCGCCGACGUCGGUGCACAGUCACCGCCGCCCGGCCGAGGGAGCAAGAGGAGGAGACGGGGCUGAGCCCGGCAGCACCGCGAGACUUUACCGGACAACAGAGGAUUGAGCAUCA
# B22: 40054077_40054988_1424_CDS_ENSG00000131473_ENST00000352035|human|control|control (ssRNA)
# RNA: GGGAGUUCUACAGUCCGACGAUCGCUGGGGGCUGGCGUCGAUGUGCUCCCGCUGGCGUUGAGGAGGAAGUUUGCAGUGUGGGCCGCUGUGGGUGGCUGGUUGGGGAUGGGCCGGUGGCCCAGGGCCAUGCCCACAAUGGCCGUCAACAGAGGAUUGAGCAUCA
# Target: T1, UNK ZnF1-3
# Assay: nsRBNS (natural sequence RNA bind-n-seq); RBNS binding buffer (assumed for nsRBNS): 25 mM Tris pH 7.5, 150 mM KCl, 3 mM MgCl2, 0.01% Triton X-100, 500 ug/ml BSA, 20 U/ml SUPERase-In, 4 C; UNK is unkempt and MSI1 is Musashi-1; names of the RNAs are library labels; protein concentration not given here; high values mean tight binding
row,Binder,binding signal
1,B1,0.996 enrichment R
2,B2,1.54 enrichment R
3,B3,0.846 enrichment R
4,B4,0.517 enrichment R
5,B5,0.856 enrichment R
6,B6,1.12 enrichment R
7,B7,0.951 enrichment R
8,B8,1.29 enrichment R
9,B9,0.919 enrichment R
10,B10,1.49 enrichment R
11,B11,0.868 enrichment R
12,B12,0.467 enrichment R
13,B13,0.887 enrichment R
14,B14,1.36 enrichment R
15,B15,1.23 enrichment R
16,B16,1.31 enrichment R
17,B17,0.434 enrichment R
18,B18,1.12 enrichment R
19,B19,0.573 enrichment R
20,B20,1.14 enrichment R
21,B21,1.62 enrichment R
22,B22,0.683 enrichment R
